Measurements published in PubChem BioAssay (NCATS).
Where “and” joins values, the source holds several entries; their conditions need not be identical. Equal entries are not always repeated. This is one part of the list. Further columns of the screen follow, without active or inactive calls. The list favours compounds with an active or inconclusive main result. Potencies come from curve fits of mixed quality, noted in brackets.

Columns and labels:
[1] = qHTS Assay for Lipid Storage Modulators (AID 1519); conditions: Drosophila S3 cells, BODIPY lipid droplet/cell ratio, laser cytometry, cells loaded with oleic acid
Summary of the method: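 Cells seeded at 5,000 per well were treated with compounds over a concentration series and loaded with oleic acid (400 uM, as added). Lipid droplet fluorescence (488 nm excitation, 500-530 nm channel) was read by laser-scanning cytometry and normalized to 20 uM Triacsin C.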

[2] = A High-Content qHTS Against Drug Library for the Identification of Small Molecules that Inhibit DYT1 Early Onset Primary Dystonia-Associated Cell Pathology (AID 1645839); conditions: HEK293 Flp-In EGFP-delE TorsinA, punctate imaging, 48 h; measured here: cell count cytotoxicity
Summary of the method: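 Flp-In T-REx 293 cells with tetracycline-inducible EGFP-delE hTOR1A (WT EGFP-hTOR1A as reference), 800 cells/well; compound added with tetracycline, 48 h at 37 C. Fixed, permeabilized cells imaged; %pathology (punctate TorsinA) primary, cell count counterscreen.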

[3] = qHTS Assay for Modulators of Human Peripheral Myelin Protein 22 (PMP22) Expression/Activity (AID 1967); conditions: Cell-based PMP22 reporter, dual-color luciferase ratio
Summary of the method: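 Engineered MSC80 cells, Pmp22-promoter green and EF-alpha red luciferase reporters; 24h compound treatment at 37 °C. Concentration-response fits on green, red and ratio signals, each overlap-corrected, with %Activity normalized to untreated wells.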

[4] = target: Nicotinamide N-methyltransferase (Homo sapiens) (UniProt P40261); assay: Confirmatory Screen for Target Class Profiling of Small Molecule Inhibitors of Methyltransferases (AID 1745852); conditions: MTase-Glo luminescence, SAH detection, recombinant enzyme; measured here: NNMT inhibition potency;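 further: inhibitor potency for blocking SAH production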
[5] = measured here: cell count channel max response
[6] = measured here: cell number channel AC50
[7] = measured here: lipid (BODIPY) channel AC50
[8] = measured here: lipid channel max response
Tags describe the fitted curve by direction and shape.

Chain of UniProt P40261 (P40261 whole entry, looked up): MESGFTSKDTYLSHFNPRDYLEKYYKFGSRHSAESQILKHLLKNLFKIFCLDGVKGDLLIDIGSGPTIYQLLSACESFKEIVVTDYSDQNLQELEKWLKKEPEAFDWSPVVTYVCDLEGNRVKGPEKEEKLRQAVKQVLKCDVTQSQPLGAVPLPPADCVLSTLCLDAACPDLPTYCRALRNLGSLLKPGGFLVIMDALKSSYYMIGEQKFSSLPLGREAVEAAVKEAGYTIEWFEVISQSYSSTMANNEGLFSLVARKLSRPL

| Structure (SMILES) | max response [1, 5] | AC50 [1, 6] | AC50 [1, 7] | max response [1, 8] | AC50 [2] | AC50 ([3]; measured here: green reporter channel AC50, mouse Pmp22 promoter in mouse Schwann cells) | AC50 ([3]; measured here: red reporter channel AC50, EF-alpha promoter control reporter in MSC80 mouse Schwann cells) | IC50 [4] |
| --- | --- | --- | --- | --- | --- | --- | --- | --- |
| CN(C)C(=O)c1ccc(-c2ccc3ncnc(Nc4ccc(F)cc4)c3c2)cc1 | 14.6% | 3.16 µM [rising, partial curve] | 3.98 µM [rising, partial curve] | 23.2% |  |  |  |  |
| N#CCCn1c(=O)c(-c2ccccc2)nc2cnc(Nc3ccccc3)nc21 | 81.4% | 22.4 µM [rising, partial curve] | 39.8 µM [falling, single point] | -64.1% |  |  |  |  |
| COCCn1c(=O)cnc2cnc(N3CCNCC3)nc21 | 18.3% | 5.01 µM [rising, single point] | 5.62 µM [rising, single point] | 28.2% |  |  |  |  |
| C[C@@H]1CN(CCCn2c3ccccc3c3ccccc32)C[C@H](C)N1 | 47.4% | 28.2 µM [rising, partial curve, poor fit] | 31.6 µM [rising, partial curve, poor fit] | 61% | 3.16 µM [falling, full curve] |  |  |  |
| O=C(O)c1ccc2c3c1cccc3c(=O)n1c3ccccc3nc21 | 58% | 3.55 µM [rising, full curve, poor fit] | 3.98 µM [rising, partial curve, poor fit] | 77% |  |  |  |  |
| COc1ccc(-c2cc(=O)c3cc(OC)ccc3o2)cc1 | 39.8% | 5.62 µM [rising, partial curve, poor fit] | 5.62 µM [rising, partial curve] | 56% |  |  |  |  |
| COc1ccc(CNc2ncncc2-c2c(C)noc2C)c(OC)c1 | 30.4% | 12.6 µM [rising, partial curve, poor fit] | 15.8 µM [rising, partial curve, poor fit] | 38.5% |  |  |  |  |
| CS(=O)(=O)Nc1cccc(-c2cncnc2NCc2cccnc2)c1 | 32.4% | 14.1 µM [rising, partial curve, poor fit] | 4.47 µM [rising, partial curve] | 37.5% |  |  |  |  |
| CNCCCCOc1ccccc1Cc1ccccc1 | 42.5% | 0.631 µM [rising, full curve, poor fit] | 31.6 µM [rising, single point] | 43.6% | 10 µM [falling, partial curve, poor fit] |  |  |  |
| COc1ccc(CNc2ccnc(-c3ccc(C(=O)N(C)C)cc3)n2)c(OC)c1 | 33.9% | 4.47 µM [rising, full curve, poor fit] | 0.0447 µM [rising, full curve, poor fit] | 36.8% |  |  |  |  |
| CC(C)(C)Cn1nc(-c2ccc(Cl)cc2)c2c(N)ncnc21 | 80.5% | 12.6 µM [rising, partial curve, poor fit] | 12.6 µM [rising, partial curve, poor fit] | 98.9% |  |  |  |  |
| CC1(C)SC2C(NC(=O)C(C(=O)O)c3ccccc3)C(=O)N2C1C(=O)O (centres undefined) | 38.5% | 39.8 µM [rising, single point] | 39.8 µM [rising, single point] | 63.8% |  |  |  |  |
| N#CCCn1c(=O)c(-c2cc(F)cc(F)c2)nc2cnc(Oc3cccc(Cl)c3)nc21 | 2.41% | 1.78 µM [rising, partial curve, poor fit] | 1.26 µM [rising, partial curve] | -2.37% |  |  |  |  |
| COCCn1c(=O)c(-c2cccs2)nc2cnc(Oc3ccccc3)nc21 | 32.3% | 0.447 µM [rising, full curve] | 4.47 µM [falling, full curve] | -58.7% |  |  |  |  |
| CCC(=O)c1ccc2c(c1)N(CCCN(C)C)c1ccccc1S2 | 62.6% | 35.5 µM [rising, partial curve, poor fit] | 35.5 µM [rising, partial curve, poor fit] | 63.4% | 12.6 µM [falling, partial curve] | 33.8 µM [falling, full curve] | 42.6 µM [falling, partial curve] | 24.3 µM [falling, partial curve] |
| CCCCCCc1c(C[C@H](N)C(=O)O)o[nH]c1=O | 26.5% and -0.198% | 14.1 µM [rising, single point] | 35.5 µM [rising, single point] and 14.1 µM [rising, single point] | 34% and 2.34% |  |  |  |  |
| CC(=O)Oc1cc(OC(C)=O)c2c(=O)cc(-c3ccc(OC(C)=O)c(OC(C)=O)c3)oc2c1 | 49% | 22.4 µM [rising, partial curve, poor fit] | 20 µM [rising, full curve, poor fit] | 28.2% |  |  |  |  |
